# Source: article PMC4336329 (PLoS ONE, 2015)
# About 14,000 (4.5%) of roughly 310,000 compounds showed an effect of 50% or more. The effect is printed as a negative number. Some of the results follow.
# Target: human ether-à-go-go-related gene (hERG) potassium channel (human, UniProt Q12809)
# Assay: primary screen, population patch clamp on CHO cells stably expressing hERG
# 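Further: peak tail current of the secondary pulse compared with the same well before compound.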
# Sequence of human ether-à-go-go-related gene (hERG) potassium channel (Q12809 whole entry, looked up): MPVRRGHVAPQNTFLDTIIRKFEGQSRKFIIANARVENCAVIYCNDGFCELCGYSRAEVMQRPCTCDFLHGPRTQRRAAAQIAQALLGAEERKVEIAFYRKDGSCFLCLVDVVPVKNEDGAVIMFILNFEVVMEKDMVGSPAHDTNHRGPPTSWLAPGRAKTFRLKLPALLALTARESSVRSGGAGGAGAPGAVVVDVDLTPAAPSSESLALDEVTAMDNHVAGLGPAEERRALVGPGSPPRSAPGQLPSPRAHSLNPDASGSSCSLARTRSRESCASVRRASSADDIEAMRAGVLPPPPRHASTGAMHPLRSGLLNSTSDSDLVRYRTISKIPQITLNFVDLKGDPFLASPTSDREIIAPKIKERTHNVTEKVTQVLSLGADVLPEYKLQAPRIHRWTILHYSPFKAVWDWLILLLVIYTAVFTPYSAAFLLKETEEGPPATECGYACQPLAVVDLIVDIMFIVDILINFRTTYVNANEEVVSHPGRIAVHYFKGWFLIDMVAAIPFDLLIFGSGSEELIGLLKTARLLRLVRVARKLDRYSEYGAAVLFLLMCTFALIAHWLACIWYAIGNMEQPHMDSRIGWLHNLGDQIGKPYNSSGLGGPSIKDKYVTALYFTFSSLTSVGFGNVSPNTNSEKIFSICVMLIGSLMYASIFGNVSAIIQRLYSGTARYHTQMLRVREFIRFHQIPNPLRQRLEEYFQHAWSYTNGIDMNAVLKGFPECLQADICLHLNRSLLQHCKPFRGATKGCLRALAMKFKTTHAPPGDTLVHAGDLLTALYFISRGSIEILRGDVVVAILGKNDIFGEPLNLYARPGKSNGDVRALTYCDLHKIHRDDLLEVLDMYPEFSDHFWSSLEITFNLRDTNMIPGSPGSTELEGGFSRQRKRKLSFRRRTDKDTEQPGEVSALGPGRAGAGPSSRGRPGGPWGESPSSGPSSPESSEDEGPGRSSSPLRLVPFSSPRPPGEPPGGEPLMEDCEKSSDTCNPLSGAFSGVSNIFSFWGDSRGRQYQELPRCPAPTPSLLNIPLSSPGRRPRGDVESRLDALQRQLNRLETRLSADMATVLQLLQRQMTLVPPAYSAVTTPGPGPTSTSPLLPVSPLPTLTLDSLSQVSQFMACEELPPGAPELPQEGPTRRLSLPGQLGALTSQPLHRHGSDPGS
row,SMILES,"hERG current change (%, negative = inhibition) at 10uM [%]"
1,O=C(COC(=O)CSc1ccc([N+](=O)[O-])cc1)NCCc1ccccc1,5.52
2,CC1(C)CC(=O)C2=C(C1)N(c1ccccc1C#N)C(N)=C(C#N)C2c1cccs1 (centres unmarked),-13
3,CSc1nsc(SCc2cnc(C)nc2N)n1,0.0826
4,COc1ccc(OC)c(S(N)(=O)=O)c1,27.5
5,N#Cc1ccc(CN2CCN(C(=O)c3cn(Cc4ccccc4)nc3-c3cccnc3)CC2)cc1,-72.9
6,COc1ccc(NC(=O)Nc2ccc3c(c2)OCO3)c(C)c1,17.3
7,O=C(CCCn1c(SCC(=O)NCC2CCCO2)nc2ccccc2c1=O)NCc1ccccc1 (centres unmarked),-29.6
8,O=C(NC1CCOC1)c1cc(COc2cccc(C(F)(F)F)c2)on1 (centres unmarked),2.06
9,COc1ccc(CNC(=O)c2cc(C3CC3)nc3c2cnn3C(C)C)cc1,3.16
10,CCc1nc(C#N)c(N2CCOCC2)o1,2.54
11,Cc1cc(C)c2c(=O)n(CC(=O)N3CCC(N4CCCCC4)CC3)sc2n1,-14.6
12,O=C(N/N=C/c1ccc([N+](=O)[O-])cc1)c1cccc(N2CCCC2=O)c1,-20.7
13,O=c1oc(-c2ccccc2NS(=O)(=O)c2ccc(Cl)cc2)nc2ccccc12,4.86
14,CCc1c(C)sc(NC(=O)/C=C/c2ccc3c(c2)OCO3)c1C(=O)OC,8.24
15,Cc1c(NC(=O)c2cnn3c(C(F)(F)F)cc(-c4ccco4)nc23)c(=O)n(-c2ccccc2)n1C,4.55
16,COc1cc(CN2CCC(CO)(CCOc3ccccc3)CC2)cc(OC)c1,-67.3
17,Cc1cc(S(=O)(=O)NCCN2CCOCC2)ccc1Cl,21.3
18,CC(=O)c1ccc(OC(=O)c2ccc(-n3nc(C)cc3C)cc2)cc1,-28.1
19,Cc1ccccc1NC(=O)NC(C)(C)CC(C)(C)C,25.4
20,Cc1c(C(=O)N2CCN(c3ncccn3)CC2)oc2c(Cl)cccc12,-20.2
21,COC(=O)c1ccc2c(=O)n(CCN3CCOCC3)c(SCC(=O)NCc3ccccc3)nc2c1,-46.1
22,Cc1ccc2[nH]c(C)c(/C=C/c3cc[n+](C)cc3)c2c1.[I-],12.4
23,Nc1nnc(SCC(=O)OCC(=O)Nc2ccccc2F)s1,5.55

row,SMILES,"hERG current change (%, negative = inhibition) at 10uM [%]"
1,CCC(C)NC(=O)CSc1nnc(-c2c[nH]c3ccccc23)o1 (centres unmarked),12.8
2,NC(=O)c1ccc(N=Nc2c(O)[nH]c(=O)[nH]c2=O)cc1,-10.8
3,Cc1cc(=O)[nH]c2c1c(C)nn2C(C)(C)C,11.2
4,C#CC(CC)(CC)NC(=O)Nc1ccccc1C(=O)OC,-11
5,Cc1cc(NCCN2CCOCC2)n2ncc(-c3ccccc3)c2n1,-11.7
6,COc1ccc(Cn2nnnc2C(c2ccccc2Cl)N2CCC(C(N)=O)CC2)cc1 (centres unmarked),-10.1
7,COc1ccc(OCC(O)CNC(=O)c2ccccc2)cc1 (centres unmarked),9.92
8,CC(=O)Nc1ccc(NC(=O)C2CCCN2C(=O)Nc2ccccc2[N+](=O)[O-])cc1 (centres unmarked),-4.34
9,COCC(=O)NC1CCN(S(=O)(=O)c2ccc(C(=O)O)cc2)CC1,4.32
10,CC(=O)Nc1sc2c(c1C(N)=O)CCC2,7.4
11,O=C(C1CCN(C2CC(=O)N(Cc3ccccc3)C2=O)CC1)N1CCCCCC1 (centres unmarked),-6.53
12,O=C(NCc1ccccc1Cl)C1CCCN(S(=O)(=O)c2cccc3nonc23)C1 (centres unmarked),7.19
13,CCSC1=NC(C)(C)C=C(C)N1,0.798
14,COCCN(CCOC)C(=S)Nc1ccccc1Cl,6.62
15,CCOC(=O)c1cnc(N2CCN(C(=O)OCC)CC2)[nH]c1=O,27.3
16,C=CCC1CCCC(=O)N2CC[C@H](O)C12 (some centres unmarked),4.45
17,Cc1cc(C(=O)OCC(=O)Nc2cccc(S(=O)(=O)N(C)C)c2)c(C)o1,5.71
18,Nc1cccnc1Oc1ccccc1F,0.615
19,COc1ccc(S(=O)(=O)N2CCOCC2)cc1NC(=O)CSc1nnc(C2CC2)n1C1CC1,2.57
20,NC(=O)C1CCN(C(=O)c2ccc3c(=O)n(Cc4ccco4)c(SCC(=O)c4ccccc4)nc3c2)CC1,6.75
21,CC(=O)Nc1ccc(NC(=O)CSC2=NS(=O)(=O)c3cc(F)ccc3N2)cc1,10.7
22,CCN(Cc1ccccc1)C(=O)COC(=O)CNS(=O)(=O)c1ccc(C)cc1,2.03
23,CCOC(=O)c1c(C)n(CC)c2c1cc(O)c1ccccc12,10.8

row,SMILES,"hERG current change (%, negative = inhibition) at 10uM [%]"
1,CCCCn1c(SCC(=O)NC2CCCC2)nnc1-c1ccco1,-54.8
2,COC(=O)Cc1c(C)c2ccc(OCC(=O)N(C)C)cc2oc1=O,-0.937
3,CCCCOc1ccccc1C1CC(=O)NC2=C1C(=O)CCC2 (centres unmarked),-0.172
4,CCOC(=O)N1C(=O)[C@](c2ccc(Cl)cc2)(C(C)C)N1C(=O)OCC,1.42
5,O=C(CN(C(=O)c1ccco1)c1cccc(F)c1)NCc1ccc(F)cc1,-30.6
6,Cc1ccccc1-n1c(SCC(=O)N/N=C/c2c(C)nn(-c3ccccc3)c2C)nc2ccccc2c1=O,6.39
7,Cc1cccc(N2C(=O)C(Cl)=C(N3CCOCC3)C2=O)c1,14.2
8,COc1nc(OC)nc(N2CCC(C(=O)NCc3ccco3)CC2)n1,-18.3
9,Cc1ccc(OCC(=O)N2CCc3ccccc32)c([N+](=O)[O-])n1,4.59
10,CCC(=O)N1CCc2cc(Br)cc(S(=O)(=O)N3CCC(C(=O)NC(C)(C)C)CC3)c21,-16.7
11,CCOC(=O)c1ccc(N2C(=O)C(C)=C(C)C2=O)cc1,1.22
12,O=C(Nc1ccccc1N1CCOCC1)c1ccc2c(c1)C(=O)N(Cc1ccncc1)C2=O,-58.8
13,COc1ccc2nc(SCC(=O)Nc3nonc3C)[nH]c2c1,3.59
14,CCOC(=O)c1[nH]c2ccc(F)cc2c1NC(=O)Nc1ccccc1OC,12.1
15,CCOc1cc2c(cc1OCC)-n1cccc1C(c1ccccc1O)NC2.Cl (centres unmarked),6.1
16,CC1(C)CC(=O)C(CC2CCCCC2=O)C(=O)C1 (centres unmarked),15.9
17,Cc1ccc(SC[C@H](C)CN2CC[C@H](C)CCC2=O)cc1,-23.5
18,COc1ccc(S(=O)(=O)Nc2c(NC3CCCCC3)c3ccccc3oc2=O)cc1Cl,9.14
19,Cc1ccc(NC(=O)CN2CC(C)SC2=NC2CCCCC2)cc1.Cl (centres unmarked),-40.6
20,CSCC[C@H](NC(=O)Nc1cccc(C(F)(F)F)c1)C(=O)O,-0.0702
21,Fc1ccccc1N1CCN(Cc2ccc3c(c2)OCO3)CC1,-26.8
22,CC(C)NC(=O)CC1C(=O)N(Cc2ccccc2)C(C)c2nc3ccccc3n21 (centres unmarked),-4.36
23,Cc1ccc(-n2nnnc2SCC(=O)NNC(=O)c2ccco2)c(C)c1,-4.35

row,SMILES,"hERG current change (%, negative = inhibition) at 10uM [%]"
1,Cn1nc(-c2ccc(Cl)cc2)c2cc(C(=O)N3CCN(C(=O)c4ccco4)CC3)sc21,-20.7
2,Cc1cccn2c(=O)c3cc(C(=O)N4COCC4(C)C)n(C)c3nc12,14.8
3,O=C(Nc1ccccc1)N1CCCC(c2nc(-c3ccc(F)cc3)no2)C1 (centres unmarked),-39.1
4,COc1ccc(NC(=O)CCCN(C)S(=O)(=O)c2ccc(C)cc2)cc1,-26.8
5,Brc1ccc(Nc2nc3ccccc3n3nnnc23)cc1,21.9
6,O=C(NNC(=O)c1ccccc1Cl)c1csc(N2CCOCC2)n1,16
7,Cc1ccccc1C1=NCC(=S)Nc2ccc(Cl)cc21,0.98
8,COc1cc(OC)c(C(=O)/C=C/c2ccc(OCc3ccccc3)c(OC)c2)c(OC)c1,21.4
9,COCCn1cc(C(=O)c2cc(Br)ccc2O)cc(C#N)c1=O,2.45
10,Br.COc1cccc(C(=O)CN2C3=NCCCN3c3ccccc32)c1,-68.1
11,CCc1ccc(CNC(=O)c2ccc(OC3CCN(C(=O)COC)CC3)cc2)nc1,-4.04
12,COCC(C)n1c(SCC(=O)c2cc(C)n(C)c2C)nc2ccccc2c1=O (centres unmarked),-3.25
13,O=C(O)C1=CC2c3ccccc3C1c1ccccc12,17.4
14,O=C1/C(=C\c2ccc(O)c(O)c2)N=C2CCCCCN12,2.71
15,COC(=O)c1ccc(OCC2c3cc(OC)c(OC)cc3CCN2C(=O)c2ccco2)cc1 (centres unmarked),-18
16,COc1cccc(C2C(C(C)=O)=C(O)C(=O)N2CCNCCO)c1 (centres unmarked),28.5
17,O=C(c1cc(-c2ccccc2O)on1)N1CCOCC1,5.23
18,CN(C)S(=O)(=O)c1cccc(NC(=O)C(c2ccccc2)c2ccccc2)c1,16.8
19,NC(=NC(=O)c1ccccc1)N1N=CCC1c1ccccc1 (centres unmarked),8.41
20,Cc1ccc(S(=O)(=O)N(C)c2ccc(C(=O)NCC3CCCO3)cc2)cc1 (centres unmarked),-16.7
